Consider 87 molecules from PubChem BioAssay AID1346428 (National Center for Advancing Translational Sciences (NCATS), 2018).

Values joined by “and” are separate entries in the source; they are usually repeats but may differ in a detail not shown here. Identical values can stand only once. In all, about 48,000 compounds went through this assay and about 1,200 (2.5%) were called active. About 2% were inconclusive and are not listed.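 Rule for the calls: active = activation of at least 60% and not above a set upper limit (about 1 call in 100 departs from these limits); inconclusive = activation of 40% to 60%, or above that upper limit; inactive = activation under 40%.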 This is one part of the list.

UniProt O75388, sequence (O75388 whole entry, looked up): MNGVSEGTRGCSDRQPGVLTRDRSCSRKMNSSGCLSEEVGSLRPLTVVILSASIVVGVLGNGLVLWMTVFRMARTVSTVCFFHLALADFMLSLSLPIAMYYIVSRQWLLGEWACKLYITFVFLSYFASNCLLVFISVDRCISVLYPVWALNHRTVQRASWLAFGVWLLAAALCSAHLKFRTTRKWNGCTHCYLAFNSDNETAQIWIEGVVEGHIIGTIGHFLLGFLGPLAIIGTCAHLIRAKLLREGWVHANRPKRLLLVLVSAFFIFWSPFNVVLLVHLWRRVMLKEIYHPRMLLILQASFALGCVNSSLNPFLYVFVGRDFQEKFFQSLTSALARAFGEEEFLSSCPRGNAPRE

The test deals with Probable G-protein coupled receptor 32 (Homo sapiens) (UniProt O75388). Kind of test: qHTS for Agonists of Human Resolvin D1 Receptor DRV1. Note: 0% is about no effect. To be noted: CHO-K1 GPR32 beta-arrestin PathHunter luminescence, 90 min; at 76.9 µM; stronger effect = higher value; zero percent set by DMSO-only wells. Put shortly:
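CHO-K1 cells stably expressing ProLink-tagged GPR32 and Enzyme Activator-tagged beta-arrestin were seeded at 2,500 cells/well overnight, exposed to compounds for 90 min at 37 °C, then read by beta-Gal complementation chemiluminescence after 1 h detection reagent.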
On to `CC1=C(C(=O)Nc2cccc(Cl)c2C)C2(CCCCCC2)OC1=O`, for which the activation was inactive: -3.34%.
The same measure for `CC1CCN(S(=O)(=O)c2ccc3c(c2)CCN3)CC1`: inactive: -26.6%; for `O=C(c1cnn(-c2ccc(F)cc2)c1-n1cccc1)N1CCN(c2ccc(F)cc2)CC1`: inactive: 19%; for `CCNc1nc(NCc2ccc(F)cc2)c2cnn(C)c2n1`: active: 72.2%.
To `Nc1ccc2c3c(cccc13)C(=O)NC2=O` belongs inactive: 11.3%.
Turning to `O=c1[nH]cnc2[nH]ncc12`, the activation was inactive: 10.8% and inactive: 8.45%.
With `CCc1ccc(S(=O)(=O)c2nnn3c2nc(Nc2cc(OC)ccc2OC)c2sccc23)cc1`, the activation was inactive: -6.08%.
In the case of `COc1ccccc1Nc1sc(C(=O)c2ccc(C)cc2C)c(N)c1S(=O)(=O)c1ccccc1`, the activation was inactive: -0.683%.
To `O=S(=O)(NCCS(=O)(=O)N1CCN(c2ccccc2)CC1)c1ccc(Br)cc1` belongs inactive: -10.3%; to `COc1ccc(CC(=O)Nc2sc3c(c2C(=O)Nc2ccccc2)CCCCC3)cc1`, inactive: -6.06%.
The same measure for `Cc1ccc(CCNC(=O)CS(=O)Cc2nc(-c3ccccc3Cl)oc2C)cc1` (configuration not stated): inactive: -5.02%; for `Cc1c(C(=O)Nc2nc(-c3ccc(F)cc3)ns2)oc2ccc(Cl)cc12`: inactive: -7.08%.
The same measure for `COc1ccccc1C(=O)Nc1ccccc1OCc1cc(=O)n2ccccc2n1`: inactive: -14%.
Consider `O=C(Cc1ccccc1)Nc1sc2c(c1C(=O)Nc1ccc(Br)cc1)CCC2`, for which the activation was inactive: -18.6%.
To `Cc1ccc2oc(C(=O)Nc3cccc(Cl)c3)cc(=O)c2c1` belongs inactive: 5.49%; to `O=C(NCCc1ccccc1)c1nc(-c2ccc(Cl)cc2)n2c1CCCCC2`, inactive: -49.9%; to `O=C(Nc1ccc(F)cc1)c1csc2c1CCCCC2`, inactive: -2.49%.
To `COc1cccc(N2CC(NC(=O)c3ccc(S(=O)(=O)N4CCOCC4)cc3)CC2=O)c1` (configuration not stated) belongs inactive: -8.09%; to `O=C(CS)Nc1ccccc1`, inactive: -57.4%; to `C/C=C1\[C@H]2C=C(C)C[C@]1(N)c1ccc(=O)[nH]c1C2`, inactive: 2.9%.
To `COc1ccc(CNc2nc3c(-c4ccccc4)nnn3c3ccccc23)cc1` belongs inactive: 2.86%; to `Cc1cc(C)c(NC(=O)CN(C)S(=O)(=O)c2ccc3c(c2)CCC(=O)N3)c(C)c1`, inactive: 2.61%; to `COc1cc2c(cc1OC)n(Cc1cccc(C(F)(F)F)c1)c(=O)n1nc(-c3ccccc3)nc21`, inactive: 10.9%.
Turning to `O=C(Oc1cccc2cccnc12)c1ccccc1`, the activation is inactive: -35.6%.
As for `O=C1CCCc2cc(S(=O)(=O)N3CCCC(C(=O)NCc4ccccc4)C3)ccc2N1` (configuration not stated), the activation was inactive: 5.23%.
For the molecule `CC(=O)c1cccc(NC(=O)c2nc(-c3ccccc3)n(-c3ccccc3)n2)c1`, the activation is inactive: -7.85%.
The same measure for `CCOC(=O)[C@H](CCc1ccccc1)N[C@@H](C)C(=O)N1Cc2cc(OC)c(OC)cc2C[C@H]1C(=O)O`: inactive: 8.02%; for `COc1cccc(NC(=O)CCNS(=O)(=O)c2ccc3c(c2)oc(=O)n3C)c1`: inactive: -6.13%; for `COc1ccc(CNC(=O)c2cc3c(=O)n(Cc4ccco4)ccc3nc2C)cc1`: inactive: -8.23%.
`CC(=O)Nc1ccc(NC(=O)CCCn2nc(C)c3sc4ccccc4c3c2=O)cc1`: the activation was inactive: 2.6%.
To `CCOc1ccc(N(C)S(=O)(=O)c2ccc3c(c2)CCCN3C(C)=O)cc1` belongs inactive: 1.02%; to `O=C(CSCn1nnc2c(=O)[nH]c(Cc3ccc(F)cc3)nc21)Nc1cccc(C(F)(F)F)c1`, inactive: -14%.
The same measure for `CN1CCC(OC(c2ccccc2)c2ccccc2)CC1`: inactive: 22.1%; for `Cc1cc(C)c(NC(=O)CCS(=O)(=O)c2cc3c(cc2Cl)NC(=O)CO3)c(C)c1`: inactive: 40.3%.
The same measure for `CCOc1ccc(NS(=O)(=O)c2cc3c(cc2Cl)NC(=O)CO3)cc1`: inactive: -15.1%; for `CCc1ccccc1NC(=O)C(=O)NCCCN1CCOCC1`: inactive: 27.3%; for `CCn1cc(C(=O)N2CCN(c3ccc(C)cc3)C(C)C2)c(=O)c2cc(S(=O)(=O)N3CCCC3)ccc21` (configuration not stated): inactive: 5.66%.
As for `CCC(C)NC(=O)C1CCN(S(=O)(=O)c2ccc3c(c2)CCCN3C(C)=O)CC1` (configuration not stated), the activation was inactive: 7.06%.
The same measure for `COc1cc2c(cc1OC)C(COc1cccc(C(F)(F)F)c1)N(C(=O)c1ccc(S(=O)(=O)N3CCCC3)cc1)CC2` (configuration not stated): inactive: 8.69%; for `Cc1ccc2c(c1)C(N1CCN(C)CC1)=Nc1cccnc1N2`: inactive: -5.78%.
To `Cc1nc2ccc(S(=O)(=O)N(CC(=O)Nc3ccc(F)cc3F)Cc3ccccc3)cc2s1` belongs inactive: -11.6%; to `Cc1nc2n(c(=O)c1CCN1CCC(C(=O)c3ccc(F)cc3)CC1)CCS2`, inactive: -0.802%.
To `CNC(=O)CCCN1C(=O)c2cccnc2Sc2ccccc21` belongs inactive: -6.45%; to `CCOc1cc(C(=O)NCCc2sc(-c3ccc(F)cc3)nc2C)cc(OCC)c1OCC`, inactive: -6.1%; to `Cc1ccc(S(=O)(=O)Nc2cccc(-c3cn4cccc(C)c4n3)c2)c(C)c1`, inactive: 24.7%.
Turning to `O=C(Cn1c(=O)c2cccn2c2cccnc21)NCc1cccc(F)c1`, the activation was inactive: -14.9%.
In the case of `O=C(Cn1c(SCc2ccccc2F)nc2ccncc21)Nc1ccccc1C(F)(F)F`, the activation was inactive: -2.24%.
`CCOc1ccc(NC(=O)c2ccc3[nH]c(C)c(C)c3c2)cc1`: the activation was inactive: 8.68%.
As to `COc1ccccc1NC(=O)Cn1c(=O)n(Cc2ccccc2)c(=O)c2c1c1cc(C)ccc1n2C`, the activation is inactive: -36.2%.
The same measure for `O=C(Cn1ccc2cc(S(=O)(=O)N3CCCCC3)ccc21)NCCc1ccccc1Cl`: inactive: -6.88%.
In the case of `Cc1ccccc1NC(=O)Cn1cc(C(=O)c2cccs2)c2ccccc21`, the activation was inactive: -6.21%.
The same measure for `CCc1ccc(NC(=O)CSC2=Nc3ccccc3C3=NC(CCC(=O)NCc4ccccc4)C(=O)N23)cc1` (configuration not stated): inactive: 0.327%; for `CN(C)C(=O)Oc1cccc([N+](C)(C)C)c1`: inactive: 24.7% and inactive: 2.39%; for `CCCCN(C)C(=O)c1cn(C)c2ccc(S(=O)(=O)N3CCC(C)CC3)cc2c1=O`: inactive: 13%.
To `Cc1ccsc1CN1CCc2nc(Nc3ccccc3)ncc2C1` belongs inactive: -9.14%.
As for `CC(NC(=O)CSc1n[nH]c(-c2ccccc2Cl)n1)c1nc2ccccc2[nH]1` (configuration not stated), the activation is inactive: 2.32%.
To `CCCCC(=O)OC1=C(C(=O)c2ccccc2)N(CCC)S(=O)(=O)c2ccccc21` belongs inactive: -11.7%; to `O=C(NCc1ccccc1Cl)c1cc2c(s1)-c1ccc(Cl)cc1SC2`, inactive: 25%; to `CCSc1nc2c([nH]c3ccccc32)c(=O)n1CC`, inactive: -21.1%.
`Cc1cccc(NS(=O)(=O)c2c(C)nc3sccn3c2=O)c1C`: the activation is inactive: -10.3%.
The same measure for `COc1cccc(CNCCNC(=O)c2nonc2N)c1`: inactive: 13.2%; for `C#Cc1ccc(-c2ccccc2F)cc1`: inactive: 9.71%.
Turning to `CCOC(=O)CSc1nc(-c2ccc(C)cc2C)cc(-c2ccccc2)c1C#N`, the activation is inactive: -38.3%.
To `CCOc1ccccc1NC(=O)N1CC(CC)Oc2ccccc21` (configuration not stated) belongs inactive: -25.9%; to `Cc1ccc(C(=O)CSc2nc(-c3ccccc3)nc3c2CCCC3)cc1`, inactive: 0.73%.
As to `Cc1cccc(CSc2ncc(Cl)c(C(=O)Nc3sc4c(c3C(N)=O)CCCC4)n2)c1`, the activation is inactive: -23.4%.
The same measure for `COc1cccc(-n2c(=O)c3c(C)c(C)sc3n(CC(=O)NCc3ccc(C)cc3)c2=O)c1`: inactive: -3.6%.
To `CC(=O)N1CCc2c(sc(NC(=O)CSc3ccccc3)c2-c2nc3ccccc3s2)C1` belongs inactive: -25.5%; to `CC(C)(C)C(=O)Nc1cccc(-c2cn3cccnc3n2)c1`, inactive: 46.7%.
As for `Cc1c(C(=O)NCc2cccc(Cl)c2)sc2ncnc(N(C)C3CCCCC3)c12`, the activation is inactive: -15.3%.
Consider `O=C(Cn1c(=O)nc(-c2ccccc2)c2ccccc21)Nc1cccc(C(F)(F)F)c1`, for which the activation was inactive: -13%.
To `Cc1ccc(Cc2c(C)nc3nc(SCC(=O)NC4CCC(C)CC4)nn3c2C)cc1` (configuration not stated) belongs inactive: -15.8%; to `COc1ccc(-c2cn(-c3ccc(C)cc3)c(S(=O)(=O)CC(=O)Nc3ccc(F)cc3)n2)cc1`, inactive: 46.6%; to `COc1ccccc1NC(=O)c1cc(=O)c2ccc(C)c(C)c2o1`, inactive: -5.49%.
To `CCOC(=O)c1ccc2c(c1)N(CC(=O)N(C)c1ccccc1)C(=O)c1ccccc1S2` belongs inactive: -14.6%.
Consider `CCOc1ccc(CCNC(=O)c2cc3c(=O)oc4ccc(C)cc4c3s2)cc1OCC`, for which the activation was inactive: -2.03%.
The same measure for `Cc1nn(CCC(=O)Nc2cc(F)ccc2F)c(=O)c2nn(-c3ccccc3)c(C)c12`: inactive: -5.48%; for `N#C/C(=C\c1ccc(-c2ccc(C(=O)O)cc2)o1)C(=O)Nc1ccccc1C(=O)O`: inactive: -1.97%; for `COc1cc(Nc2nc(SCC(=O)c3ccc(Br)cc3)nc3ccccc23)cc(OC)c1`: inactive: -28.8%.
The same measure for `O=C(CC1N=C2c3ccccc3N=C(SCc3cccc(Cl)c3)N2C1=O)NCc1ccc2c(c1)OCO2` (configuration not stated): inactive: -3.04%; for `CC1CCCCN1C(=O)CSc1n[nH]c(-c2ccccc2Cl)n1` (configuration not stated): inactive: 12.9%; for `Cc1cc(C)cc(OCC(=O)Nc2c(C)ccc3nsnc23)c1`: inactive: -10.7%.
On to `COc1ccc(S(=O)(=O)c2cnc3ccc(Cl)cc3c2N2CCCCC2C)cc1` (configuration not stated), for which the activation was inactive: -36.9%.
To `CC1CCCc2sc3nc(SCC(=O)c4ccc(Br)cc4)nc(N)c3c21` (configuration not stated) belongs inactive: 17%; to `Cc1ccccc1NC(=O)CSc1nc2nccnc2c(=O)n1CCc1c[nH]c2ccccc12`, inactive: -10.5%; to `Cc1cccc(N2CCN(C(=O)Cn3nc(C)n4cccc4c3=O)CC2C)c1` (configuration not stated), inactive: -3.48%.
To `CN(Cc1ccccc1)S(=O)(=O)c1nnc(NC(=O)c2cccc(Cl)c2)s1` belongs active: 67.9%.
